{
  "source": "the supplement of paper PMC8728848",
  "assay_in_all_cases": "glycan array binding signal (z-score within array); higher = stronger binding",
  "settings_in_all_cases": "glycan notation: IUPAC condensed, linker removed",
  "key": {"Gal6S(b1-4)Glc6S": {"biological_target": "Gal6S(b1-4)Glc6S", "method_in_brief": "(§1)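 Arrays were curated from the Consortium for Functional Glycomics database, 3228 in total, and kept only where the protein sequence was available. Binding is expressed as a within-array Z-score. This score was averaged across arrays of the same protein sequence at different concentrations or buffers and across linkers, and negative values can be read as non-binding.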"}, "Gal6S(b1-4)GlcNAc": {"biological_target": "Gal6S(b1-4)GlcNAc", "method_in_brief": "as §1"}, "Gal6S(b1-4)GlcNAc6S": {"biological_target": "Gal6S(b1-4)GlcNAc6S", "method_in_brief": "as §1"}, "GalNAc(a1-3)Gal": {"biological_target": "GalNAc(a1-3)Gal", "method_in_brief": "as §1"}, "GalNAc(a1-3)GalNAc": {"biological_target": "GalNAc(a1-3)GalNAc", "method_in_brief": "as §1"}, "[1]": {"biological_target": "GalNAc(a1-3)GalNAc(b1-3)Gal(a1-4)Gal(b1-4)Glc", "method_in_brief": "as §1"}, "[2]": {"biological_target": "GalNAc(a1-3)GalNAc(b1-3)Gal(a1-4)Gal(b1-4)GlcNAc", "method_in_brief": "as §1"}, "GalNAc(b1-3)Gal": {"biological_target": "GalNAc(b1-3)Gal", "method_in_brief": "as §1"}, "[3]": {"biological_target": "GalNAc(b1-3)Gal(a1-4)Gal(b1-4)GlcNAc", "method_in_brief": "as §1"}, "[4]": {"biological_target": "GalNAc(b1-3)Gal(a1-4)Gal(b1-4)GlcNAc(b1-3)Gal(b1-4)Glc", "method_in_brief": "as §1"}, "[5]": {"biological_target": "GalNAc(b1-3)Gal(a1-6)Gal(b1-4)Glc", "method_in_brief": "as §1"}, "GalNAc(b1-3)GalNAc": {"biological_target": "GalNAc(b1-3)GalNAc", "method_in_brief": "as §1"}, "GalNAc(b1-3)GlcNAc": {"biological_target": "GalNAc(b1-3)GlcNAc", "method_in_brief": "as §1"}, "GalNAc(b1-4)Gal(b1-4)Glc": {"biological_target": "GalNAc(b1-4)Gal(b1-4)Glc", "method_in_brief": "as §1"}, "GalNAc(b1-4)GlcNAc": {"biological_target": "GalNAc(b1-4)GlcNAc", "method_in_brief": "as §1"}, "[6]": {"biological_target": "GalNAc(b1-4)GlcNAc(b1-2)Man", "method_in_brief": "as §1"}, "[7]": {"biological_target": "GalNAc(b1-4)GlcNAc(b1-2)Man(a1-3)[GalNAc(b1-4)GlcNAc(b1-2)Man(a1-6)]Man(b1-4)GlcNAc(b1-4)GlcNAc", "method_in_brief": "as §1"}, "[8]": {"biological_target": "GalNAc(b1-4)GlcNAc(b1-3)GalNAc(b1-4)GlcNAc", "method_in_brief": "as §1"}, "GalNAc(b1-4)GlcNAc6S": {"biological_target": "GalNAc(b1-4)GlcNAc6S", "method_in_brief": "as §1"}, "GalNAc(b1-6)GalNAc": {"biological_target": "GalNAc(b1-6)GalNAc", "method_in_brief": "as §1"}, "GalNAc3S(b1-4)GlcNAc": {"biological_target": "GalNAc3S(b1-4)GlcNAc", "method_in_brief": "as §1"}, "GalNAc3S(b1-4)GlcNAc3S": {"biological_target": "GalNAc3S(b1-4)GlcNAc3S", "method_in_brief": "as §1"}, "[9]": {"biological_target": "GalNAc3S(b1-4)[Fuc(a1-3)]GlcNAc", "method_in_brief": "as §1"}, "GalNAc4S6S(b1-4)GlcNAc": {"biological_target": "GalNAc4S6S(b1-4)GlcNAc", "method_in_brief": "as §1"}, "GalNAc6S(b1-4)GlcNAc": {"biological_target": "GalNAc6S(b1-4)GlcNAc", "method_in_brief": "as §1"}, "Glc(a1-4)Glc": {"biological_target": "Glc(a1-4)Glc", "method_in_brief": "as §1"}, "[10]": {"biological_target": "Glc(a1-4)Glc(a1-4)Glc(a1-4)Glc", "method_in_brief": "as §1"}, "Glc(a1-6)Glc(a1-6)Glc": {"biological_target": "Glc(a1-6)Glc(a1-6)Glc", "method_in_brief": "as §1"}, "[11]": {"biological_target": "Glc(a1-6)Glc(a1-6)Glc(a1-6)Glc", "method_in_brief": "as §1"}, "Glc(b1-4)Glc": {"biological_target": "Glc(b1-4)Glc", "method_in_brief": "as §1"}, "Glc(b1-6)Glc": {"biological_target": "Glc(b1-6)Glc", "method_in_brief": "as §1"}, "GlcA(b1-3)Gal": {"biological_target": "GlcA(b1-3)Gal", "method_in_brief": "as §1"}, "GlcA(b1-3)GlcNAc": {"biological_target": "GlcA(b1-3)GlcNAc", "method_in_brief": "as §1"}, "GlcA(b1-6)Gal": {"biological_target": "GlcA(b1-6)Gal", "method_in_brief": "as §1"}, "[12]": {"biological_target": "GlcA3S(b1-3)Gal(b1-4)GlcNAc(b1-2)Man", "method_in_brief": "as §1"}, "[13]": {"biological_target": "GlcA3S(b1-3)Gal(b1-4)GlcNAc(b1-3)Gal(b1-4)Glc", "method_in_brief": "as §1"}, "[14]": {"biological_target": "GlcNAc(a1-3)Gal(b1-4)GlcNAc", "method_in_brief": "as §1"}, "[15]": {"biological_target": "GlcNAc(a1-4)Gal(b1-3)GlcNAc", "method_in_brief": "as §1"}, "[16]": {"biological_target": "GlcNAc(a1-4)Gal(b1-4)GalNAc", "method_in_brief": "as §1"}, "[17]": {"biological_target": "GlcNAc(a1-4)Gal(b1-4)GlcNAc", "method_in_brief": "as §1"}, "[18]": {"biological_target": "GlcNAc(a1-4)Gal(b1-4)GlcNAc(b1-3)Gal(b1-4)Glc", "method_in_brief": "as §1"}, "[19]": {"biological_target": "GlcNAc(a1-4)Gal(b1-4)GlcNAc(b1-3)Gal(b1-4)GlcNAc", "method_in_brief": "as §1"}, "[20]": {"biological_target": "GlcNAc(a1-4)Gal(b1-4)GlcNAc(b1-3)Gal(b1-4)GlcNAc(b1-3)Gal(b1-4)GlcNAc", "method_in_brief": "as §1"}, "[21]": {"biological_target": "GlcNAc(a1-4)Gal(b1-4)GlcNAc(b1-3)Gal(b1-4)[Fuc(a1-3)]GlcNAc(b1-3)Gal(b1-4)[Fuc(a1-3)]GlcNAc", "method_in_brief": "as §1"}, "[22]": {"biological_target": "GlcNAc(a1-6)Gal(b1-4)GlcNAc", "method_in_brief": "as §1"}},
  "note": "The list shows a part of the results.",
  "data": [
    {"binder": "Pwp4 (Candida glabrata) (protein) MGSSHHHHHHSSGLVPRGSHMASVGNPITVSNVCSFPKNWHRTAGFRALTARLGIGIQSDSYKELLNYPGTFQLTTQQSSTTKPNFQISGLVGNIYGLTIVPSYLLVELTGYFVPPVSGEYTFSLEGSDDAAIIFIANPSTFKCGHVEDWPTAYDNDVTVTESIHATRTIYMIEGVAYPIRIAYYNGLSLGKLQASFTDPEGVKRVDWNGYIWRYDSCDTCSYV", "values": [
      {"measurement": "glycan array binding signal (z-score)", "setting": "Gal6S(b1-4)Glc6S", "value": 0.19},
      {"measurement": "glycan array binding signal (z-score)", "setting": "Gal6S(b1-4)GlcNAc", "value": -0.68},
      {"measurement": "glycan array binding signal (z-score)", "setting": "Gal6S(b1-4)GlcNAc6S", "value": 0.077},
      {"measurement": "glycan array binding signal (z-score)", "setting": "GalNAc(a1-3)Gal", "value": 1.74},
      {"measurement": "glycan array binding signal (z-score)", "setting": "GalNAc(a1-3)GalNAc", "value": -0.108},
      {"measurement": "glycan array binding signal (z-score)", "setting": "[1]", "value": -0.288},
      {"measurement": "glycan array binding signal (z-score)", "setting": "[2]", "value": -0.39},
      {"measurement": "glycan array binding signal (z-score)", "setting": "GalNAc(b1-3)Gal", "value": -0.584},
      {"measurement": "glycan array binding signal (z-score)", "setting": "[3]", "value": -0.311},
      {"measurement": "glycan array binding signal (z-score)", "setting": "[4]", "value": -0.42},
      {"measurement": "glycan array binding signal (z-score)", "setting": "[5]", "value": -0.526},
      {"measurement": "glycan array binding signal (z-score)", "setting": "GalNAc(b1-3)GalNAc", "value": -1.04},
      {"measurement": "glycan array binding signal (z-score)", "setting": "GalNAc(b1-3)GlcNAc", "value": -0.408},
      {"measurement": "glycan array binding signal (z-score)", "setting": "GalNAc(b1-4)Gal(b1-4)Glc", "value": -0.175},
      {"measurement": "glycan array binding signal (z-score)", "setting": "GalNAc(b1-4)GlcNAc", "value": -0.202},
      {"measurement": "glycan array binding signal (z-score)", "setting": "[6]", "value": -0.392},
      {"measurement": "glycan array binding signal (z-score)", "setting": "[7]", "value": 0.13},
      {"measurement": "glycan array binding signal (z-score)", "setting": "[8]", "value": 0.086},
      {"measurement": "glycan array binding signal (z-score)", "setting": "GalNAc(b1-4)GlcNAc6S", "value": -0.423},
      {"measurement": "glycan array binding signal (z-score)", "setting": "GalNAc(b1-6)GalNAc", "value": -0.402},
      {"measurement": "glycan array binding signal (z-score)", "setting": "GalNAc3S(b1-4)GlcNAc", "value": -0.515},
      {"measurement": "glycan array binding signal (z-score)", "setting": "GalNAc3S(b1-4)GlcNAc3S", "value": 2.05},
      {"measurement": "glycan array binding signal (z-score)", "setting": "[9]", "value": 0.219},
      {"measurement": "glycan array binding signal (z-score)", "setting": "GalNAc4S6S(b1-4)GlcNAc", "value": 2.02},
      {"measurement": "glycan array binding signal (z-score)", "setting": "GalNAc6S(b1-4)GlcNAc", "value": -0.377},
      {"measurement": "glycan array binding signal (z-score)", "setting": "Glc(a1-4)Glc", "value": -0.39},
      {"measurement": "glycan array binding signal (z-score)", "setting": "[10]", "value": -0.384},
      {"measurement": "glycan array binding signal (z-score)", "setting": "Glc(a1-6)Glc(a1-6)Glc", "value": -1.11},
      {"measurement": "glycan array binding signal (z-score)", "setting": "[11]", "value": -0.446},
      {"measurement": "glycan array binding signal (z-score)", "setting": "Glc(b1-4)Glc", "value": -0.434},
      {"measurement": "glycan array binding signal (z-score)", "setting": "Glc(b1-6)Glc", "value": -2.69},
      {"measurement": "glycan array binding signal (z-score)", "setting": "GlcA(b1-3)Gal", "value": 0.623},
      {"measurement": "glycan array binding signal (z-score)", "setting": "GlcA(b1-3)GlcNAc", "value": -0.506},
      {"measurement": "glycan array binding signal (z-score)", "setting": "GlcA(b1-6)Gal", "value": -0.803},
      {"measurement": "glycan array binding signal (z-score)", "setting": "[12]", "value": 1.18},
      {"measurement": "glycan array binding signal (z-score)", "setting": "[13]", "value": 2.74},
      {"measurement": "glycan array binding signal (z-score)", "setting": "[14]", "value": 0.005},
      {"measurement": "glycan array binding signal (z-score)", "setting": "[15]", "value": -0.698},
      {"measurement": "glycan array binding signal (z-score)", "setting": "[16]", "value": -0.853},
      {"measurement": "glycan array binding signal (z-score)", "setting": "[17]", "value": -0.021},
      {"measurement": "glycan array binding signal (z-score)", "setting": "[18]", "value": 1.52},
      {"measurement": "glycan array binding signal (z-score)", "setting": "[19]", "value": 0.102},
      {"measurement": "glycan array binding signal (z-score)", "setting": "[20]", "value": -0.547},
      {"measurement": "glycan array binding signal (z-score)", "setting": "[21]", "value": 0.399},
      {"measurement": "glycan array binding signal (z-score)", "setting": "[22]", "value": 1.07}
    ]}
  ]
}
